Assay results as given in the supplement of paper PMC4967469.

Experiments:
Assay in all cases: Viability of human cancer cell lines after 72 h of drug (GDSC screen)
AT-7519 = compound: O=C(NC1CCNCC1)c1n[nH]cc1NC(=O)c1c(Cl)cccc1Cl [AT-7519]; conditions: top dose 10.24 µM; top dose inferred
Experimental: (§1)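 Human cancer cell lines in 384-well plates, medium with 10% serum, drug for 72 h over a 256-fold dose range (nine 2-fold or five 4-fold steps up to the top dose). Adherent lines were fixed and stained with the nucleic acid dye Syto60, suspension lines read with resazurin; signal relative to control wells, capped at 0 and 100%. One two-parameter sigmoid per drug and line, fitted in a mixed model over all curves with the slope shared within a line.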

XMD14-99 = compound: COc1cc(N2CCN(C)CC2)ccc1Nc1nc(N)c(C(=O)c2c(Cl)cccc2Cl)s1 [XMD14-99]; conditions: top dose 10.24 µM; top dose inferred
Experimental: as §1

FH535 = compound: Cc1cc([N+](=O)[O-])ccc1NS(=O)(=O)c1cc(Cl)ccc1Cl [FH535]; conditions: top dose 32 µM; top dose inferred
Experimental: as §1

| Cell Line | AUC (AT-7519) | IC50 (AT-7519) [µM] | AUC (XMD14-99) | IC50 (XMD14-99) [µM] | AUC (FH535) | IC50 (FH535) [µM] |
| --- | --- | --- | --- | --- | --- | --- |
| NCI-H2110 (non-small cell lung carcinoma, adherent) | 0.595 | 1.17 | 0.981 | > 10.2 | 0.636 | 4.8 |
| NCI-H1573 (lung adenocarcinoma, adherent) | 0.847 | 7.22 | 0.987 | > 10.2 | 0.834 | 20 |
| NCI-H2452 (mesothelioma, adherent) | 0.984 | > 10.2 | 0.981 | > 10.2 | 0.967 | > 32 |
| OVKATE (ovary, adherent) | 0.791 | 8.68 | 0.967 | > 10.2 | 0.917 | > 32 |
| NY (osteosarcoma, adherent) | 0.987 | > 10.2 | 0.986 | > 10.2 | 0.619 | 4.23 |
| Detroit562 (head and neck, adherent) | 0.921 | > 10.2 | 0.988 | > 10.2 | 0.658 | 5.37 |
| NUGC-3 (stomach, adherent) | 0.746 | 3.59 | 0.981 | > 10.2 | 0.614 | 4.3 |
| CAMA-1 (breast, adherent) | 0.857 | > 10.2 | 0.976 | > 10.2 | 0.413 | 1.09 |
| 647-V (bladder, adherent) | 0.734 | 2.99 | 0.987 | > 10.2 | 0.568 | 3.06 |
| SAS (head and neck, adherent) | 0.513 | 0.696 | 0.972 | > 10.2 | 0.925 | > 32 |
| HO-1-u-1 (head and neck, adherent) | 0.819 | 5.52 | 0.984 | > 10.2 | 0.596 | 3.62 |
| SAT (head and neck, adherent) | 0.551 | 0.949 | 0.975 | > 10.2 | 0.9 | > 32 |
| BxPC-3 (pancreas, adherent) | 0.526 | 0.76 | 0.98 | > 10.2 | 0.678 | 6.71 |
| NCI-H1651 (lung adenocarcinoma, adherent) | 0.915 | > 10.2 | 0.983 | > 10.2 | 0.55 | 2.77 |
| IPC-298 (melanoma, adherent) | 0.839 | 6.8 | 0.974 | > 10.2 | 0.574 | 3.18 |
| CHP-212 (neuroblastoma, adherent) | 0.9 | > 10.2 | 0.96 | > 10.2 | 0.459 | 1.56 |
| SK-MEL-28 (melanoma, adherent) | 0.925 | > 10.2 | 0.988 | > 10.2 | 0.267 | 0.441 |
| NCI-H2172 (non-small cell lung carcinoma, adherent) | 0.934 | > 10.2 | 0.975 | > 10.2 | 0.851 | > 32 |
| IM-95 (stomach, adherent) | 0.41 | 0.357 | 0.959 | > 10.2 | 0.568 | 3.11 |
| COR-L23 (large cell lung carcinoma, adherent) | 0.458 | 0.495 | 0.963 | > 10.2 | 0.55 | 2.73 |
| HCC-56 (large intestine, adherent) | 0.77 | 3.99 | 0.972 | > 10.2 | 0.622 | 4.37 |
| JHH-2 (liver, adherent) | 0.622 | 1.43 | 0.985 | > 10.2 | 0.912 | > 32 |
| HMV-II (melanoma, adherent) | 0.809 | 6.84 | 0.884 | > 10.2 | 0.514 | 2.2 |
| HN (head and neck, adherent) | 0.956 | > 10.2 | 0.988 | > 10.2 | 0.909 | > 32 |
| Hs683 (glioma, adherent) | 0.777 | 4.15 | 0.974 | > 10.2 | 0.734 | 9.4 |
| SK-MES-1 (lung squamous cell carcinoma, adherent) | 0.766 | 4.11 | 0.954 | > 10.2 | 0.501 | 2.02 |

| Cell Line | AUC (AT-7519) | IC50 (AT-7519) [µM] | AUC (XMD14-99) | IC50 (XMD14-99) [µM] | AUC (FH535) | IC50 (FH535) [µM] |
| --- | --- | --- | --- | --- | --- | --- |
| Hs939-T (melanoma, adherent) | 0.966 | > 10.2 | 0.986 | > 10.2 | 0.506 | 2.08 |
| LS-180 (large intestine, adherent) | 0.839 | 8.46 | 0.976 | > 10.2 | 0.686 | 7.18 |
| PC-3 [JPC-3] (lung adenocarcinoma, adherent) | 0.64 | 1.78 | 0.974 | > 10.2 | 0.636 | 5.37 |
| EN (endometrium, adherent) | 0.713 | 3.04 | 0.974 | > 10.2 | 0.556 | 2.97 |
| KYSE-510 (oesophagus, adherent) | 0.917 | > 10.2 | 0.991 | > 10.2 | 0.671 | 5.45 |
| CAKI-1 (kidney, adherent) | 0.94 | > 10.2 | 0.966 | > 10.2 | 0.689 | 8.9 |
| BCPAP (thyroid, adherent) | 0.601 | 1.18 | 0.974 | > 10.2 | 0.518 | 2.23 |
| MCF7 (breast, adherent) | 0.976 | > 10.2 | 0.986 | > 10.2 | 0.551 | 2.78 |
| MKN1 (stomach, adherent) | 0.677 | 2.06 | 0.978 | > 10.2 | 0.61 | 4.08 |
| HEC-1 (endometrium, adherent) | 0.954 | > 10.2 | 0.988 | > 10.2 | 0.715 | 7.9 |
| HTC-C3 (thyroid, adherent) | 0.849 | 9.18 | 0.969 | > 10.2 | 0.486 | 1.83 |
| WM35 (melanoma, adherent) | 0.685 | 2.11 | 0.974 | > 10.2 | 0.565 | 3.02 |
| MKN28 (stomach, adherent) | 0.849 | 7.97 | 0.984 | > 10.2 | 0.597 | 3.71 |
| HCC-15 (lung squamous cell carcinoma, adherent) | 0.843 | > 10.2 | 0.975 | > 10.2 | 0.666 | 6.63 |
| UACC-62 (melanoma, adherent) | 0.949 | > 10.2 | 0.984 | > 10.2 | 0.225 | 0.321 |
| COR-L105 (lung adenocarcinoma, adherent) | 0.736 | 3.58 | 0.957 | > 10.2 | 0.638 | 5.27 |
| EFM-192A (breast, adherent) | 0.865 | > 10.2 | 0.981 | > 10.2 | 0.264 | 0.389 |
| PFSK-1 (medulloblastoma, adherent) | 0.43 | 0.406 | 0.983 | > 10.2 | 0.66 | 5.72 |
| DAN-G (pancreas, adherent) | 0.655 | 1.62 | 0.987 | > 10.2 | 0.415 | 1.21 |
| 23132-87 (stomach, adherent) | 0.687 | 2.18 | 0.984 | > 10.2 | 0.594 | 3.66 |
| CCK-81 (large intestine, adherent) | 0.854 | 7.31 | 0.99 | > 10.2 | 0.758 | 10.5 |
| CAL-12T (non-small cell lung carcinoma, adherent) | 0.372 | 0.272 | 0.952 | > 10.2 | 0.438 | 1.32 |
| ChaGo-K-1 (non-small cell lung carcinoma, adherent) | 0.639 | 1.65 | 0.985 | > 10.2 | 0.614 | 4.33 |
| Saos-2 (osteosarcoma, adherent) | 0.966 | > 10.2 | 0.98 | > 10.2 | 0.658 | 6.67 |
| MIA-PaCa-2 (pancreas, adherent) | 0.941 | > 10.2 | 0.985 | > 10.2 | 0.361 | 0.794 |
| RKN (ovary, adherent) | 0.524 | 0.745 | 0.974 | > 10.2 | 0.667 | 6 |

| Cell Line | AUC (AT-7519) | IC50 (AT-7519) [µM] | AUC (XMD14-99) | IC50 (XMD14-99) [µM] | AUC (FH535) | IC50 (FH535) [µM] |
| --- | --- | --- | --- | --- | --- | --- |
| HARA (lung squamous cell carcinoma, adherent) | 0.415 | 0.36 | 0.967 | > 10.2 | 0.657 | 5.9 |
| H4 (glioma, adherent) | 0.877 | 10.1 | 0.985 | > 10.2 | 0.556 | 2.84 |
| T-24 (bladder, adherent) | 0.807 | 4.98 | 0.984 | > 10.2 | 0.91 | > 32 |
| SW156 (kidney, adherent) | 0.958 | > 10.2 | 0.97 | > 10.2 | 0.533 | 2.49 |
| LU-135 (small cell lung carcinoma, suspension) | 0.856 | 6.1 | 0.978 | > 10.2 | 0.509 | 2.11 |
| RD (rhabdomyosarcoma, adherent) | 0.702 | 2.53 | 0.985 | > 10.2 | 0.657 | 5.72 |
| VM-CUB-1 (bladder, adherent) | 0.963 | > 10.2 | 0.987 | > 10.2 | 0.683 | 6.35 |
| CAL-78 (chondrosarcoma, adherent) | 0.986 | > 10.2 | 0.986 | > 10.2 | 0.874 | > 32 |
| PCI-30 (head and neck, adherent) | 0.982 | > 10.2 | 0.981 | > 10.2 | 0.939 | > 32 |
| RCM-1 (large intestine, adherent) | 0.92 | > 10.2 | 0.975 | > 10.2 | 0.66 | 6.17 |
| HuP-T3 (pancreas, adherent) | 0.758 | 4.3 | 0.978 | > 10.2 | 0.762 | 13.9 |
| UMC-11 (lung carcinoid, adherent) | 0.799 | 4.3 | 0.965 | > 10.2 | 0.449 | 1.48 |
| MDA-MB-175-VII (breast, adherent) | 0.929 | > 10.2 | 0.981 | > 10.2 | 0.493 | 1.91 |
| RVH-421 (melanoma, adherent) | 0.83 | 9.95 | 0.945 | > 10.2 | 0.391 | 0.897 |
| SW48 (large intestine, adherent) | 0.882 | > 10.2 | 0.979 | > 10.2 | 0.498 | 1.98 |
| MDA-MB-361 (breast, adherent) | 0.972 | > 10.2 | 0.989 | > 10.2 | 0.548 | 2.7 |
| KP-4 (pancreas, adherent) | 0.711 | 2.45 | 0.988 | > 10.2 | 0.475 | 1.71 |
| HCC1419 (breast, adherent) | 0.793 | 7.08 | 0.98 | > 10.2 | 0.603 | 4.32 |
| RMG-I (ovary, adherent) | 0.745 | 3.7 | 0.976 | > 10.2 | 0.728 | 10.1 |
| NCI-H460 (large cell lung carcinoma, adherent) | 0.99 | > 10.2 | 0.99 | > 10.2 | 0.612 | 3.93 |
| JIMT-1 (breast, adherent) | 0.902 | > 10.2 | 0.985 | > 10.2 | 0.567 | 3.09 |
| P12-ICHIKAWA (T-cell lymphoblastic leukaemia, suspension) | 0.251 | 0.152 | 0.951 | > 10.2 | 0.809 | 12.3 |
| SW626 (ovary, adherent) | 0.599 | 1.26 | 0.962 | > 10.2 | 0.575 | 3.33 |
| CAL-54 (kidney, adherent) | 0.95 | > 10.2 | 0.984 | > 10.2 | 0.55 | 2.8 |

By IC50 is meant the dose at which the fit gives 50% viability; fits outside the tested doses are given as limits. For AUC the same curve is integrated over the 256-fold range of doses and scaled to a fraction: 1 means no effect, lower means more sensitive. The top dose, if marked as inferred, was calculated from the reported fits.
